Results from PubChem BioAssay AID1963576 (National Center for Advancing Translational Sciences (NCATS), 2024).
In all, about 46,000 compounds went through this assay and about 60 (0.1%) were called active. Not shown: some 3% with an inconclusive outcome. Calls follow the shape of the dose curve; as a rule, active = well fitted inhibition curve with a large enough effect; inconclusive = small, poorly fitted or top-dose-only effect; inactive = no such curve, though single readings can be large or run the other way. Some of the results follow.

Assay: Primary qHTS assay for Inhibitors of ovarian cancer metastasis using an organotypic tumor microenvironment (TME) model. Also: nearly all actives have a fitted effect of over 65% in size.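 As to activity change, negative = inhibition: plate controls were DMSO wells for no effect and tomatine positive control wells for full effect.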
Settings: SKOV3ip1-GFP adhesion/invasion on 3D omental model, fluorescence; series mostly up to 45.8 µM; activity change, negative = inhibition: at the top concentration
How it was run: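 Adhesion/invasion was scored as fixed GFP-labeled SKOV3ip1 cell counts (488/509 nm), normalized to DMSO and tomatine controls. Cancer cells in serum-free medium, with four compound doses (0.36-46 umol/L), sat 2 hr at RT then 16 hr at 37 C on a 48 hr fibroblast/mesothelial/ECM culture.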

Activity change, negative = inhibition, inactive:
CCC(Cn1nnc2ccccc2c1=O)NC(=O)Nc1cccc(Cl)c1 (stereo not given) -43.6%
COc1ccc(Cl)cc1NC(=O)CN1c2ccccc2S(=O)(=O)c2ccccc21 -23.2%
O=C(CSC1=Nc2ccccc2N=C(c2ccc(F)cc2)C1)Nc1cc(F)ccc1F 36.9%
CN(C(=O)Nc1cn(C)c(=O)c2ccccc12)c1ccccc1 -9.19%
O=C(NC1CC(=O)N(c2cccc(F)c2)C1)C1CCCCC1 (stereo not given) -0.344%
COc1ccccc1CCNC(=O)Cc1c(C)c2c(cc(C)c3c(C)coc32)oc1=O 6.04%
COc1ccc(N2C(=O)C(CC(=O)Nc3ccc(F)cc3)N(CCC3=CCCCC3)C2=O)cc1 (stereo not given) 1.15%
CCCCNc1cc(NC2CCCCC2)c2c3c(onc13)-c1ccccc1C2=O -3.28%
COc1ccccc1CCNC(=O)c1cc2ccccn2n1 -11.3%
COCCCNC(=O)c1c(NC(=O)c2cc(=O)c3cc(C)c(C)cc3o2)sc2c1CCCC2 7.69%
CCCN1C(=O)CN(C2CCCCCC2)C(=O)C1c1ccc(OCC)c(OC)c1 (stereo not given) 0.835%
O=C(CCC1N=C2c3ccccc3N=C(SCc3cccc(F)c3)N2C1=O)NC1CCCCC1 (stereo not given) -10.6%
CC1=C(C(=O)Nc2ccccc2Cl)C(c2cccs2)n2ncnc2N1 (stereo not given) 3.23%
COC(=O)c1cc2sccc2n1Cc1ccccc1 -10.5%
CCn1cc2nc(SCc3cccc(OC)c3)n(Cc3ccc(Cl)cc3)c(=O)c2n1 -12.4%
N#CC[C@H](C1CCCC1)n1cc(-c2ncnc3[nH]ccc23)cn1 36.9%
Cc1ccc(SCC(=O)Nc2cccc(-c3nc4cc(Cl)ccc4o3)c2C)cc1 -9.69%
COc1cccc(NS(=O)(=O)c2ccc3[nH]cc(C(=O)NC4CCCCC4)c(=O)c3c2)c1 8.83%
O=S(=O)(NCc1ccccc1)c1ccc2[nH]c3c(c2c1)CCCCC3 -2.18%
CCOC(=O)C1CCCN(C(=O)c2cc3c(=O)n(C)c4ccccc4c3s2)C1 (stereo not given) 2.06%
Cc1c(CNC(C)c2ccccc2)c(C(=O)O)c(C)n1Cc1c(F)cccc1Cl (stereo not given) 2.08%
CCOC(=O)N1CCN([N+]([O-])=NOc2cc(ON=[N+]([O-])N3CCN(C(=O)OCC)CC3)c([N+](=O)[O-])cc2[N+](=O)[O-])CC1 21%
Cc1ccc(-n2nc(CO)c(C(=O)NCCc3ccccc3)n2)cc1C -4.18%
CCc1ccc(N2C(=O)CS(=O)(=O)C23C(=O)N(Cc2ccccc2)c2ccccc23)cc1 (stereo not given) 6.21%
COc1cc(-c2noc(-c3nnn(-c4ccc(Cl)cc4)c3C)n2)cc(OC)c1OC -8.64%
CC(=O)c1ccc(NC(=O)C2CCCN(S(=O)(=O)c3cn(C)cn3)C2)cc1 (stereo not given) 0.0512%
CCc1cccc(C)c1Nc1c(-c2ccc(N3CCOCC3)cc2)nc2ncccn12 1.14%
CCCc1nn(C)c2c(=O)[nH]c(-c3cc(S(=O)(=O)N4CCN(C)CC4)ccc3OCC)nc12 -10.6%
COc1ccc(-n2nc3c(c2NC(=O)C(=O)N2CCN(C)CC2)CSC3)cc1 -0.467%
O=C(Cn1c(=O)n(-c2ccc(F)cc2)c(=O)c2sccc21)Nc1cccc(C(F)(F)F)c1 -4.61%
Cc1cc(C)cc(OCC(=O)Nc2cccc(-c3nc4ccccc4[nH]3)c2)c1 -28.7%
CCOC(=O)c1cc2c(=O)n3ccccc3nc2n(Cc2ccco2)c1=NC(=O)c1ccccc1OC 6.91%
Cc1c2cnn(CC(=O)Nc3ccc(F)cc3F)c(=O)c2c(C)n1Cc1cccc(Cl)c1 9.7%
CN(C[C@@H]1COCCO1)S(=O)(=O)Nc1ccc2ccc3ncc(-c4cnn(C)c4)cc3c(=O)c2c1 26.9%
CCOc1ccc2nc(N3CCCC(C(=O)NCCc4ccc(SC)cc4)C3)sc2c1 (stereo not given) 39.7%
COc1cc(NC(=O)CSc2nc3nc(C)c(Cc4ccccc4)c(C)n3n2)cc(OC)c1 -3.46%
Cc1ccc(C)c(NC(=O)CSc2nnc(C)n3c2cc2occc23)c1 -7%
Cn1c(=O)c2sccc2n2c(CCC(=O)Nc3ccc(F)cc3)nnc12 -4.61%
COc1cccc(C(=O)c2sc(Nc3ccc(F)c(Cl)c3)nc2N)c1 -7.28%
Cc1cc(C)cc(NC(=O)C(=O)NCC(c2cccnc2)N2CCc3ccccc32)c1 (stereo not given) 11.5%
CCOC(=O)c1ccc(CN(Cc2ccc(Br)cc2)S(=O)(=O)c2cccc(C(F)(F)F)c2)cc1 -5.1%
COc1ccc2c(c1)c(=O)c(C(=O)c1ccc(C)cc1)cn2Cc1ccccc1F 1.86%
CCC(C(=O)OC)n1nnc2sc(-c3ccccc3)cc2c1=O (stereo not given) 2.07%
CCCCN(CC)CCNc1ncnc2onc(-c3ccc(Cl)cc3)c12 -14.9%
O=C(CN1C(=O)C2CCCCN2c2ccc(C(=O)N3CCCC3)cc21)NCc1ccccc1F (stereo not given) 6.11%
CN(c1ccccc1)C(CNS(=O)(=O)c1ccccc1)c1ccccc1 (stereo not given) -7.01%
O=C(COc1ccccc1Cl)Nc1ccccc1OCc1cc(=O)n2ccccc2n1 3.47%
Cc1ccc(N2C(=O)CS(=O)(=O)C23C(=O)N(Cc2ccccc2F)c2ccccc23)cc1Cl (stereo not given) -7.77%
CCCCS(=N)(=O)CCC(N)C(=O)O (stereo not given) 23.5%
COC(=O)c1sccc1S(=O)(=O)N(CC(=O)NCc1ccc(F)cc1)c1ccc(C)c(C)c1 -1.32%
CNS(=O)(=O)c1cn(CC(=O)Nc2cccc(C(F)(F)F)c2)cc1S(=O)(=O)NC -4.96%
Cc1ccc(CN(Cc2ccco2)C(=O)c2cccc(C)c2)cc1 -7.63%
Cc1cccc(NC(=O)NC2COc3ccccc3C2)c1C (stereo not given) 5.01%
COc1ccc(Cc2nnc(C(=O)NCCCN3CCN(c4ccccc4F)CC3)o2)cc1OC 17.5%
CC(C)COc1ccc(Nc2ncnc3ccc(Br)cc23)cc1 -10.5%
COc1ccc(CNc2nc(-c3ccco3)nn2C(=O)CC(C)C)cc1 7.39%
COc1ccc(C2Sc3ccccc3N(CCN(C)C)C(=O)C2OC(C)=O)cc1 (stereo not given) -5.16%
Cc1cc(S(=O)(=O)n2ccnc2C(C)C)cc([N+](=O)[O-])c1C 0.627%
CCCNc1ccc(-c2nc(-c3ccco3)no2)cc1[N+](=O)[O-] 1.15%
CCc1ccc(CNC(=O)C(CC)n2nc(C)c3c(C)n(-c4ccccc4)nc3c2=O)cc1 (stereo not given) -26%
O=C(Nc1cc(C(F)(F)F)ccc1Cl)c1ccc2c(c1)CCN2S(=O)(=O)c1ccccc1 -6.53%
CCOC(=O)c1nc(Nc2ccc(Cl)cc2)c2c(C)noc2n1 1.64%
Cc1ccc(Cl)cc1N1CCN(C(=O)c2cn(CC(C)C)c(=O)c3c2c2ccccc2n3C)CC1 5.22%
Cc1ccc(CCNC(=O)c2ccc(CNS(=O)(=O)c3ccc(C)cc3)cc2)cc1 -8.24%
Cc1cc(C)c(Cn2c(=O)n(-c3ccccc3Cl)c(=O)c3c(C)c(C(=O)N(C)C)sc32)c(C)c1 2.63%
CC(=O)c1c(C)oc2ccc(NS(=O)(=O)c3ccc(C(C)C)cc3)cc12 -2.02%
COc1cccc(N2CC(NC(=O)C3CCCCC3)CC2=O)c1 (stereo not given) -0.276%
COc1ccc(N2CCN(C(=O)c3ccc4c(c3)N(Cc3cc(C)ccc3C)C(=O)c3ccccc3S4=O)CC2)cc1 (stereo not given) 8.13%
CCC(C)(C)C(=O)O[C@H]1C[C@@H](C)C=C2C=C[C@H](C)[C@H](CC[C@@H]3C[C@@H](O)CC(=O)O3)[C@H]21 2.69%
Cc1ccc(Oc2nc3c(c(=O)n(Cc4ccccc4Cl)c(=O)n3C)n2C)cc1C -0.922%
Cc1ccccc1C(=O)Nc1cccc(-c2cn3cccnc3n2)c1 4.54%
COc1ccc(C(=O)Nc2nnc(S(=O)(=O)N3CCN(c4ccc(C)cc4)CC3)s2)cc1 8.52%
CC(Oc1ccccc1)C(=O)Nc1nnc(S(=O)(=O)N2CCCCCC2)s1 (stereo not given) 3.02%

outcome, inactive:
CCCOc1ccc(CNC(=O)C2CCN(c3nc4ccccc4nc3C(F)(F)F)CC2)cc1
Cc1cc(NS(=O)(=O)c2ccc(NC(=O)COc3c(C)cc(Br)cc3C)cc2)no1
CCOc1ccc(-c2c(C)nn3c(C)c(C(=O)NCC(C)c4ccccc4)cnc23)cc1OCC (stereo not given)
O=C(Nc1ccccc1C(F)(F)F)c1noc2c1CCCCC2
CC(C)NC(=O)c1cc2c(Cl)nc3ccccc3c2s1
CCC(=O)N1CCc2cc(S(=O)(=O)CCC(=O)NCc3ccc(F)cc3)ccc21
COc1cccc(CNC(=O)Cn2c(=O)oc3cc(S(=O)(=O)N4CCC(C)CC4)ccc32)c1
Cc1ccc(-n2nc3c(=O)n(C(C)C(=O)O)nc(C)c3c2C)cc1 (stereo not given)
Cc1ccc(Cl)cc1NC(=O)Cn1c(=O)n(CCC(=O)N2CCc3ccccc3C2)c(=O)c2ccccc21
CCOc1ccc(NC(=O)Cn2cc(C(=O)c3ccc(C)c(C)c3)c(=O)c3cc(F)ccc32)cc1
Cc1cc(O)c(C(=O)c2cnc3c(c2)COc2ccccc2-3)cc1Cl
Cc1ccc(CNC(=O)c2ccc3c(c2)N(Cc2cccc(Cl)c2)C(=O)CS3)cc1
COc1ccc(OC)c(-c2noc(N3CCN(c4cc(Cl)ccc4C)CC3)n2)c1
COc1ccc(C2c3c(-c4ccccc4O)n[nH]c3C(=O)N2CCc2ccccc2)cc1 (stereo not given)
COC(=O)c1ccc(Cl)cc1NC(=O)Nc1nnc(N(C)Cc2ccccc2)s1
COc1ccccc1NC(=O)CN1CCN(CC(=O)Nc2ccc(F)c(F)c2)CC1
O=S(=O)(Nc1cccc(-c2ccc(N3CCOCC3)nn2)c1)c1cc(C(F)(F)F)ccc1Cl
CNS(=O)(=O)c1cn(CC(=O)N2CCN(c3ccc(C)cc3C)CC2)cc1S(=O)(=O)NC
Cc1cn2c(=O)cc(COc3cccc(NC(=O)c4ccccc4Cl)c3)nc2s1
COc1cccc(-c2cc(C(=O)Nc3ccc4c(c3)OCO4)no2)c1
COc1ccc(-c2cc3nc(C)c(CCC(=O)Nc4ccc(F)cc4F)c(C)n3n2)c(OC)c1
COc1ccc(/C=C/C(=O)N2CCC(c3nc4ccccc4o3)CC2)cc1
